Reference: ChEMBL document CHEMBL1201862, “PubChem BioAssay data set” (2004)
Values joined by “and” are separate entries in the source; they are usually repeats but may differ in a detail not shown here. Equal values may be shown once.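 All cell lines were grown in 96-well plates and treated with compound for 48 hours. GI50 is the concentration that inhibits growth by half.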 Active and inactive are the calls of the source. No stated cut-off is given here; in the data, active = GI50 up to about 1.1 µM and inactive = higher. Peptide text beside a SMILES is read from it. * marks the point of attachment. Boc = CC(C)(C)OC(=O)*; OBn = c1ccc(CO*)cc1

These compounds were tested on NCI-H322M (assay: NCI tumour cell line growth inhibition, 48 h).

Compound	GI50
Cc1ccc(C(=O)CC(O)(C(F)(F)F)C(F)(F)F)cc1[N+](=O)[O-]	inactive: 2.32 µM
CC1=NC(=Cc2ccccc2O)C(=O)N1n1c(-c2ccccc2)nc2ccccc2c1=O	inactive: 46.5 µM
CC1CCC2CC(=O)OC([C@@H]3C(=O)O[C@@H](C4=CCCC4)C4C(C)CCC43)C12 (stereo partly drawn)	inactive: > 100 µM
COc1c(C)c2nc3ccccc3nc2c2c(O)ccnc12	inactive: > 100 µM
Cc1c(C(=O)/C=C/c2ccccc2)[n+]([O-])c2ccccc2[n+]1[O-]	inactive: 17.3 µM
CCOCCOCCOCc1nc(C#N)c(N)o1	inactive: > 100 µM
COc1nc(NC2OC(COC(C)=O)C(OC(C)=O)C(OC(C)=O)C2OC(C)=O)c2c(OC(C)=O)c(C)c(=O)oc2n1 (stereo not drawn)	inactive: > 100 µM
Cn1c2c(c3ccccc31)CC(=O)N1CCCCC1C21OCCO1 (stereo not drawn)	inactive: > 100 µM
CC1(C)OC2OC(C(=O)c3ccccc3)C3OC(C)(C)OC3C2O1 (stereo not drawn)	inactive: > 100 µM
CC(C)C1OCC(CO)CO1 (stereo not drawn)	inactive: > 100 µM
CCOC1=CP(=O)(OCC)CC(C)=C1Cl (stereo not drawn)	inactive: > 100 µM
CCOC(=O)CN1CCS/C1=N/C#N	inactive: > 100 µM
CC(=O)OCC1=C(C(=O)O)C(c2ccc3c(c2)OCO3)c2cc3c(cc2O1)OCO3 (stereo not drawn)	inactive: > 100 µM
COc1cc(S(=O)(=O)Nc2ccc(-c3csc(N4C(=O)CSC4c4cccc(Oc5ccccc5)c4)n3)cc2)ccc1Cl (stereo not drawn)	inactive: 54.3 µM
COc1ccc(/C=C/CO)cc1OC	inactive: > 100 µM
N#C[BH2-][n+]1ccc(C(=O)NNCC(F)(F)F)cc1	inactive: > 100 µM
CCOC(=O)C1=CC(C)(C(=O)OCC)Nc2c(nc(OC)n(C)c2=O)N1 (stereo not drawn)	inactive: > 10 µM
COc1ccc2c(c1OC)C(=O)O[C@@H]2[C@H]1c2cc3c(cc2CCN1C)OCO3	inactive: > 100 µM
COc1cc2c3c(cc(Cl)nc3c1OC)C(O)(CC(C)=O)C(=O)N2 (stereo not drawn)	inactive: > 100 µM
COc1cc(/C=C2/SC(c3ccccc3)N(c3ccc(Cl)cc3)C2=O)cc(OC)c1OC (stereo not drawn)	inactive: 98.4 µM
COc1ccc(CN(CCN(C)C)c2ccccn2)cc1.Cn1c(=O)c2[nH]c(Br)nc2n(C)c1=O	inactive: > 100 µM
O=C1C(F)=CC(COC(c2ccccc2)(c2ccccc2)c2ccccc2)OC1n1cc(F)c(=O)[nH]c1=O (stereo not drawn)	inactive: 5.19 µM

Compound	GI50
C=C(C)C(=O)O[C@H]1[C@H]2[C@H](OC(=O)[C@H]2C)[C@H](O)[C@@H](C)[C@@H]2C=CC(=O)[C@]21C	inactive: 3.03 µM
C=C1C(=O)C2=C[C@H]1C[C@H](O)C(=O)[C@]1(C)CCCC(C)(C)[C@H]1C[C@H]2O	inactive: 16.2 µM
NS(=O)(=O)c1ccc(NNc2c3ccccc3nc3ccccc23)cc1	inactive: 13.2 µM
COC(=O)C1CCOC(C)N1C(=O)OC(C)(C)C (stereo not drawn)	inactive: > 100 µM
O=C(O)CC[P+](c1ccccc1)(c1ccccc1)c1ccccc1	inactive: 71.8 µM
CO[C@H]1c2cccc3cccc(c23)[C@@H]1n1[nH]c(=O)n(C(C)(C)C)c1=O	inactive: > 100 µM
C=CC1OC(CCCOC(=O)C(C)(C)C)O[C@@H]1CC (stereo partly drawn)	inactive: > 100 µM
CCN(CC)CC(=O)Nc1ccc2c(c1)C(=O)c1ccc(NC(=O)CN(CC)CC)cc1C2=O	inactive: 39.1 µM
COc1cc2c(cc1Cl)[n+]([O-])c(C#N)c(N1CCN(c3ccc([N+](=O)[O-])cc3)CC1)[n+]2[O-]	inactive: > 83.4 µM
O=C1OC(c2ccccc2)=N/C1=C\c1cccc2ccccc12	inactive: > 100 µM
CN(C(=O)C12C3C4C1C1C2C3C41C(O)C(C)(C)C)C(C)(C)C (stereo not drawn)	inactive: > 100 µM
O=P(Nc1ccccc1)(Oc1ccccc1)N(CCCl)CCCl (stereo not drawn)	inactive: > 100 µM
COc1cc(C=C2C(=O)NC(=O)NC2=O)cc(OC)c1OC	inactive: > 100 µM
COI1NC(=O)c2ccccc21	inactive: > 100 µM
COC(=O)[C@H]1[C@H](OC(=O)[C@@H](OC)c2ccccc2)ON2CC[C@@H](OC(=O)c3ccccc3)[C@H]12	inactive: > 100 µM
CC(C)N(C(=O)C1(C)CC1)C(C)C	inactive: > 100 µM
[N-]=[N+]=Nc1cc(=O)n(-c2ccccc2)c2ccccc12	inactive: > 100 µM
CS/C(c1ccccc1)=[N+](\[O-])Cc1ccccc1	inactive: > 100 µM
Cc1c2ccccc2c(C)n2c1nc1ccccc12	inactive: 1.95 µM
COc1cc(/C=C/C(=N\NC(N)=S)c2sc(NNC(C)=O)nc2C)ccc1O	inactive: > 100 µM
O=C1CNc2cc(N3CCN(c4cccc(C(F)(F)F)c4)CC3)ccc2N1	inactive: > 100 µM
CC(=O)O[C@H]1CC[C@H]2[C@@H]3CCC4C(C)=NNC(=O)C4[C@H]3CC[C@]12C (stereo partly drawn)	inactive: > 80.4 µM

Compound	GI50
CCN(CC)CCNC(=O)C1COc2ccc(-c3cc(=O)c4ccccc4o3)cc2O1 (stereo not drawn)	inactive: 18.6 µM
COC1=CC(=O)C(O)=C(C[C@@]2(C)[C@@H]3CCC[C@H](COC(=O)CCCCCNC(=O)OC(C)(C)C)[C@@]3(C)CC[C@@H]2C)C1=O	inactive: > 10 µM
C=Cc1nc2c(Cl)ncnc2n1Cc1ccccc1	inactive: 9.84 µM
Cc1ccc(C)c(N2C/C(=N\NC(=O)CC#N)C(c3nc4ccccc4s3)C(=O)C2=O)c1 (stereo not drawn)	inactive: > 100 µM
O=C(Nn1c(-c2ccccc2)nc2ccccc2c1=O)c1ccc(O)cc1	inactive: > 100 µM
CC1(C)O[C@@H]2COC(=O)[C@@H]2O1	inactive: > 100 µM
COc1cc(/C=C2\C(=O)N(c3cccc(NC(C)=O)c3)C(c3ccccc3)S2(=O)=O)cc(OC)c1OC (stereo not drawn)	inactive: > 100 µM
O=C1C2=Cc3ccccc3OC2(O)Oc2ccccc21 (stereo not drawn)	inactive: > 100 µM
O=C1OC(C2Cc3ccc4ccccc4c3C2=O)c2ccccc21 (stereo not drawn)	inactive: 34.8 µM
CCOC(=O)C(C)c1nc2cc(N3CCOCC3)c(F)cc2[nH]c1=O (stereo not drawn)	inactive: > 100 µM
CC1C2CC(CC2(C)O)C1(C)C (stereo not drawn)	inactive: > 100 µM
COc1ccc(-c2cc(=O)c3ccccc3o2)cc1N	inactive: 83.2 µM
CC1(C)CC(=O)c2c(nc3ccc4ccccc4c3c2-c2ccc(NC(=O)CCCCC(=O)Nc3ccc(-c4c5c(nc6ccc7ccccc7c46)CC(C)(C)CC5=O)cc3)cc2)C1	inactive: > 100 µM
Cc1ccc(-c2c(C#N)c(-c3ccc([N+](=O)[O-])cc3)c(C#N)c(=O)n2NS(=O)(=O)c2ccc(C)cc2)cc1	inactive: 49.7 µM
CSc1nc(NC2OCC(OC(C)=O)C(OC(C)=O)C2OC(C)=O)c2c(OC(C)=O)c(C)c(=O)oc2n1 (stereo not drawn)	inactive: > 100 µM
COc1ccc(-c2c(-c3ccc(OC)cc3)n3c(=O)n(C)c(=O)n23)cc1	inactive: > 100 µM
CC1(C)OC2C(CO)OC(n3ccc(N)nc3=O)C2O1 (stereo not drawn)	inactive: > 100 µM
O=C(O)C(CO)NC(=O)C1C(C(=O)O)C(c2ccccc2[N+](=O)[O-])C=C(c2ccco2)N1c1ccncc1 (stereo not drawn)	inactive: 11 µM
O=C(CNc1ccccc1[N+](=O)[O-])Nn1c(-c2ccccc2)nc2ccccc2c1=O	inactive: 21 µM
CC(O)C1(CNc2cc(Cl)nc(N)n2)CCCCC1 (stereo not drawn)	inactive: > 100 µM
C/C(=C\COP(=O)(O)OP(=O)(O)O)CCCCCCOCc1ccccc1	inactive: > 100 µM
N=c1c2c(=S)n(-c3ccccc3)c(=S)n(-c3ccccc3)c2nc(SCCN2CCCC2)n1-c1ccccc1	inactive: 11.7 µM

Compound	GI50
COC(=O)C1=C(C(=O)OC)C2(c3ccccc3)c3ccccc3C(=O)C1N2C1CCCCC1 (stereo not drawn)	inactive: > 100 µM
O=C(O)c1cc(-c2ccc3cc(O)c(O)cc3c2)ccc1O	inactive: > 12.5 µM
c1cnc(N2CCN(Cc3c[nH]c4ccccc34)CC2)nc1	inactive: 79.3 µM
O=C(c1cc2c(c3ccccc13)NC1(CCCCC1)N=C2C(F)(F)F)C(F)(F)F	inactive: 11.2 µM
CC(C)CC(NC(=O)OC(C)(C)C)C(=O)NC(CC(=O)OCc1ccccc1)C(=O)OCc1ccccc1 (stereo not drawn) (Boc-Leu-Asp(OBn)-OBn; configuration not given here)	inactive: > 100 µM
CSc1c(C(N)=S)c(N)nn1-c1ccccc1	inactive: > 100 µM
CO[C@@H]1C[C@H](OC(N)=O)[C@@H]2C=C[C@@H]3/C=C(C)/C=C/[C@@H](C)[C@H](/C(C)=C/[C@@H](C)NC(C)=O)OC(=O)/C=C/C=C(C)\C=C\[C@]3(C)[C@@H]2C1 [SUPERSTOLIDE B]	active: < 0.005 µM
Cc1cccc(N2C(=O)C3ON(C(C(N)=O)c4ccccc4)C(c4c5ccccc5c(Cl)c5ccccc45)C3C2=O)c1C (stereo not drawn)	inactive: 14.6 µM
O=C1CC23CC(=O)CC2(C1)c1ccccc1C3=O (stereo not drawn)	inactive: > 100 µM
C[N+]1(C)C/C(=C\c2ccccc2)C(=O)/C(=C/c2ccccc2)C1	inactive: > 100 µM
Cc1cc(S(=O)(=O)Nc2nc(N)n(-c3ccccc3)n2)c(S)cc1Cl	inactive: > 100 µM
CNC(=O)OCc1nc(SC)n(C)c1CO	inactive: > 100 µM
CC(C)=CCc1c2c(c3occ(-c4ccc(O)c(O)c4)c(=O)c3c1O)C=CC(C)(C)O2 [POMIFERIN]	inactive: 3.74 µM
Cc1ccc(-c2nnc(-c3ccc4ccccc4c3)o2)cc1	inactive: > 100 µM
O=C(CC(=O)Nc1ccccc1)N/N=C/c1cc(/N=N/c2ccc(Br)cc2)ccc1O	inactive: 3.48 µM
O=C(c1ccccc1)n1cc(/C=C/[N+](=O)[O-])c2ccccc21	inactive: 63.8 µM
COc1cc(C2c3cc4c(cc3[C@@H](NCCN(C)C)C3COC(=O)[C@H]23)OCO4)cc(OC)c1O (stereo partly drawn)	inactive: 1.81 µM
Cc1c(OCc2ccccc2)c(=O)ccn1CCc1c[nH]c2ccccc12	inactive: > 100 µM
CC(C)=NN/C(=N\c1ccc(Cl)cc1)NS(=O)(=O)c1cc2ccccc2s1	inactive: 58.6 µM
O=C1c2ccccc2-c2c3c(cc4ccnc1c24)OCO3 [LIRIODENINE]	inactive: 6.01 µM and inactive: 11.2 µM
O=C(N/N=C\c1ccc(Cl)cc1)Nc1ccc2ccccc2c1	inactive: > 100 µM
Cc1ccc(C)c(N2C(=O)C(=O)C(c3nc4ccccc4o3)C(=O)C2=O)c1	inactive: > 100 µM
